# The other results are listed elsewhere or left out. Values were computed here from the reads of four pooled replicates and scatter widely.
# Molecular target: T1, Pho4 (S. cerevisiae) (UniProt P07270)
# T1 sequence: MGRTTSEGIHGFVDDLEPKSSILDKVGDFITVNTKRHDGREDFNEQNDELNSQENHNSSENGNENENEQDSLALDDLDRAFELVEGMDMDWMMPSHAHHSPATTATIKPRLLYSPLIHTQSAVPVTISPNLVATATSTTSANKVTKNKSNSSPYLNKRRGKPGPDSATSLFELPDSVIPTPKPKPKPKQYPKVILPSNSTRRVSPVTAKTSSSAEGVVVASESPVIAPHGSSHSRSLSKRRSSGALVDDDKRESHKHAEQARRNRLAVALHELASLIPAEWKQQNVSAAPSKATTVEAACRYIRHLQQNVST
# Assay: relative binding free energy (BET-seq); higher = weaker binding
# Settings: reference: library average
row,Sequence,relative binding free energy
1,GAGGTCACGTGATTAG,0.37 kcal/mol
2,GATTCCACGTGGGGCG,0.14 kcal/mol
3,TGAGGCACGTGTTCGT,-0.06 kcal/mol
4,ATCAGCACGTGCGTGT,-0.09 kcal/mol
5,GGGATCACGTGTGCGT,0.24 kcal/mol
6,TATAACACGTGAGTAG,0.13 kcal/mol
7,AGATGCACGTGTGGAC,0 kcal/mol
8,CAGTACACGTGGATGT,0.07 kcal/mol
9,GCAGGCACGTGTGGAA,0 kcal/mol
10,AGAGACACGTGTGGGG,0.07 kcal/mol
11,AGGTCCACGTGGGGAG,-0.05 kcal/mol
12,TATATCACGTGCGTGC,0.1 kcal/mol
13,GTTAACACGTGGTGGC,0.11 kcal/mol
14,ATTGTCACGTGTGTTC,0.13 kcal/mol
15,ATTGTCACGTGATAAA,0.22 kcal/mol
16,AAGCTCACGTGTTTGA,0.31 kcal/mol
17,GTAACCACGTGGGTAT,-0.01 kcal/mol
18,TATAGCACGTGTTAAT,-0.01 kcal/mol
19,GTGGGCACGTGGTCAG,-0.15 kcal/mol
20,CGCGTCACGTGGGTTG,-0.09 kcal/mol
21,GGATCCACGTGGAGTG,-0.01 kcal/mol
22,GTAGCCACGTGTGCGG,-0.07 kcal/mol
23,CATAACACGTGAGGGG,0.19 kcal/mol

row,Sequence,relative binding free energy
1,CAATGCACGTGTGGGG,0.01 kcal/mol
2,ATATGCACGTGCTGTG,-0.01 kcal/mol
3,TGAAGCACGTGAGGAA,0.36 kcal/mol
4,CAATGCACGTGGGCGG,-0.14 kcal/mol
5,GATAACACGTGGGGCT,0.01 kcal/mol
6,TCATGCACGTGTGTAC,0.21 kcal/mol
7,TGGTACACGTGTGGTT,0.2 kcal/mol
8,CGGGGCACGTGAACGT,0.06 kcal/mol
9,TAAGTCACGTGAGTCG,0.32 kcal/mol
10,CTTTGCACGTGTAGGA,0.03 kcal/mol
11,GAATGCACGTGAAGGT,0.15 kcal/mol
12,ATGGGCACGTGTTTTG,-0.01 kcal/mol
13,AATGACACGTGGTAGG,-0.15 kcal/mol
14,CATGGCACGTGTAATT,0.08 kcal/mol
15,TATAACACGTGGTGGT,-0.1 kcal/mol
16,AGAGCCACGTGGGTGT,-0.17 kcal/mol
17,GTGATCACGTGTGAAG,0.16 kcal/mol
18,ATTGGCACGTGTTTCA,-0.11 kcal/mol
19,AGTGTCACGTGAGCAT,0.13 kcal/mol
20,TAAATCACGTGCGTTA,0.11 kcal/mol
21,CTATTCACGTGTTTGA,0.11 kcal/mol
22,GGGTGCACGTGAACTG,0.07 kcal/mol
23,TATGTCACGTGTAAGT,0.16 kcal/mol

row,Sequence,relative binding free energy
1,AGATTCACGTGGTAAT,0.18 kcal/mol
2,ATTGCCACGTGCGTGT,-0.23 kcal/mol
3,AGGGCCACGTGGAGGG,-0.14 kcal/mol
4,GCCGGCACGTGGGCGG,-0.27 kcal/mol
5,ATTAGCACGTGGGGTT,-0.15 kcal/mol
6,GTTTGCACGTGTTTAG,0.11 kcal/mol
7,GATTTCACGTGGAGTT,0.44 kcal/mol
8,TGGAACACGTGATGAT,0.3 kcal/mol
9,GTTTACACGTGGCGAT,0.06 kcal/mol
10,CTTTACACGTGTGATT,0.03 kcal/mol
11,CTGGGCACGTGCGAGT,0 kcal/mol
12,CGTGTCACGTGGACTG,0.08 kcal/mol
13,AAGTACACGTGGTCTG,-0.06 kcal/mol
14,GCGTTCACGTGGGGGT,0.13 kcal/mol
15,GGGTTCACGTGTGCGT,0.34 kcal/mol
16,GATGGCACGTGTAGTG,0.06 kcal/mol
17,TTCAGCACGTGTGTAA,-0.01 kcal/mol
18,GTGTACACGTGGAATA,0.09 kcal/mol
19,GGGATCACGTGGCTTT,0.27 kcal/mol
20,GCTGGCACGTGTAAGT,0.17 kcal/mol
21,ATTTACACGTGGTCTT,-0.01 kcal/mol
22,AATGGCACGTGATATT,0.02 kcal/mol
23,GTCTGCACGTGTGTTA,-0.01 kcal/mol

row,Sequence,relative binding free energy
1,ACAGACACGTGGGGAG,-0.1 kcal/mol
2,GATCGCACGTGTAGGG,0.13 kcal/mol
3,GTGTGCACGTGCTGCG,-0.1 kcal/mol
4,AGTTACACGTGCTGTA,-0.03 kcal/mol
5,AAGCTCACGTGGTGGT,0.12 kcal/mol
6,CAGGTCACGTGTCGTT,0.2 kcal/mol
7,CTAATCACGTGTGTGG,0.16 kcal/mol
8,ATCATCACGTGGAGTA,0.2 kcal/mol
9,AGATGCACGTGTGTTT,0.06 kcal/mol
10,AGAGGCACGTGTCAGT,-0.2 kcal/mol
11,CGTTGCACGTGTGTGC,-0.01 kcal/mol
12,TGTACCACGTGTTTTA,0.07 kcal/mol
13,GGTTTCACGTGCGGCA,0.26 kcal/mol
14,GGTTTCACGTGAAAGC,0.29 kcal/mol
15,AGGCGCACGTGGATTT,-0.03 kcal/mol
16,ATATTCACGTGATGTC,0.38 kcal/mol
17,ATGGACACGTGGAGGT,0.11 kcal/mol
18,GTAGTCACGTGTGAGG,0.22 kcal/mol
19,TTGGGCACGTGTAGAC,0 kcal/mol
20,GGTGTCACGTGCTCAG,0.11 kcal/mol
21,CTGAGCACGTGATTTT,0.06 kcal/mol
22,TATGCCACGTGAGTGT,0.08 kcal/mol
23,TGTTGCACGTGTGAGT,0.1 kcal/mol

row,Sequence,relative binding free energy
1,CAGGTCACGTGGGCTT,-0.02 kcal/mol
2,TTGCGCACGTGAAGGG,0.14 kcal/mol
3,GGGTCCACGTGGGGCA,-0.26 kcal/mol
4,TCGGTCACGTGTCTGT,0.1 kcal/mol
5,GGTGGCACGTGATAGT,0.02 kcal/mol
6,TTGATCACGTGGGGAA,0.08 kcal/mol
7,GGGGTCACGTGCTTGC,0.09 kcal/mol
8,CTCGGCACGTGTTTGT,-0.19 kcal/mol
9,TATGGCACGTGATATG,0.05 kcal/mol
10,TGGTCCACGTGGATTT,0.02 kcal/mol
11,TCGGGCACGTGGGGAA,-0.33 kcal/mol
12,GAGCTCACGTGTTGTT,0.28 kcal/mol
13,TGCTTCACGTGCGGGA,0.26 kcal/mol
14,GGTATCACGTGCAGTT,0.05 kcal/mol
15,ATTATCACGTGGGATA,0.13 kcal/mol
16,GGTGTCACGTGTCTGG,0.18 kcal/mol
17,AATGCCACGTGGTAGT,-0.12 kcal/mol
18,TTTTCCACGTGGGGGT,-0.09 kcal/mol
19,GAGGTCACGTGTAGTG,0.16 kcal/mol
20,GGGATCACGTGAGAGA,0.39 kcal/mol
21,TGTGCCACGTGTGGCT,0.02 kcal/mol
22,ATCAGCACGTGGGGTG,-0.35 kcal/mol
23,ATGATCACGTGTGTCA,0.11 kcal/mol
